Where a chain is given by its changes, count along the chain named. The list shows a part of the results.

Data on 31 molecules can be found in article PMC9911399, “Two distinct binding modes provide the RNA-binding protein RbFox with extraordinary sequence specificity”.

T1: RBFOX1 RRM (Homo sapiens, UniProt Q9NWB1 109-208)
T1 sequence: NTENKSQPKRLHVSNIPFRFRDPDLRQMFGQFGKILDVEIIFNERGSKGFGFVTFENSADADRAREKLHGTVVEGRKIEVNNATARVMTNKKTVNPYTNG

B1: UAGUCGU (DNA:RNA)
RNA: GGGAGACCGGAAUUCAGAUUGUCCUAGUCGUUUAAAUCCCGUCGUAGCCACCA
DNA 1: CAATCTGAATTCCGGTCTCCC
DNA 2: TGGTGGCTACGACGGGATT
B2: AUGCGUU (DNA:RNA)
RNA: B1 RNA with U25A, A26U, U28C, C29G, G30U
DNA 1: CAATCTGAATTCCGGTCTCCC
DNA 2: TGGTGGCTACGACGGGATT
B3: UGACGUG (DNA:RNA)
RNA: B1 RNA with A26G, G27A, U28C, C29G, G30U, U31G
DNA 1: CAATCTGAATTCCGGTCTCCC
DNA 2: TGGTGGCTACGACGGGATT
B4: ACUGCGA (DNA:RNA)
RNA: B1 RNA with U25A, A26C, G27U, U28G, U31A
DNA 1: CAATCTGAATTCCGGTCTCCC
DNA 2: TGGTGGCTACGACGGGATT
B5: GACGCAA (DNA:RNA)
RNA: B1 RNA with U25G, G27C, U28G, G30A, U31A
DNA 1: CAATCTGAATTCCGGTCTCCC
DNA 2: TGGTGGCTACGACGGGATT
B6: CUCAGGU (DNA:RNA)
RNA: B1 RNA with U25C, A26U, G27C, U28A, C29G
DNA 1: CAATCTGAATTCCGGTCTCCC
DNA 2: TGGTGGCTACGACGGGATT
B7: GAACAAG (DNA:RNA)
RNA: B1 RNA with U25G, G27A, U28C, C29A, G30A, U31G
DNA 1: CAATCTGAATTCCGGTCTCCC
DNA 2: TGGTGGCTACGACGGGATT
B8: CUGGAGU (DNA:RNA)
RNA: B1 RNA with U25C, A26U, U28G, C29A
DNA 1: CAATCTGAATTCCGGTCTCCC
DNA 2: TGGTGGCTACGACGGGATT
B9: AGGUCCG (DNA:RNA)
RNA: B1 RNA with U25A, A26G, G30C, U31G
DNA 1: CAATCTGAATTCCGGTCTCCC
DNA 2: TGGTGGCTACGACGGGATT
B10: CCAAGGC (DNA:RNA)
RNA: B1 RNA with U25C, A26C, G27A, U28A, C29G, U31C
DNA 1: CAATCTGAATTCCGGTCTCCC
DNA 2: TGGTGGCTACGACGGGATT
B11: CGCCCUA (DNA:RNA)
RNA: B1 RNA with U25C, A26G, G27C, U28C, G30U, U31A
DNA 1: CAATCTGAATTCCGGTCTCCC
DNA 2: TGGTGGCTACGACGGGATT
B12: GACGGUG (DNA:RNA)
RNA: B1 RNA with U25G, G27C, U28G, C29G, G30U, U31G
DNA 1: CAATCTGAATTCCGGTCTCCC
DNA 2: TGGTGGCTACGACGGGATT
B13: ACGGAGC (DNA:RNA)
RNA: B1 RNA with U25A, A26C, U28G, C29A, U31C
DNA 1: CAATCTGAATTCCGGTCTCCC
DNA 2: TGGTGGCTACGACGGGATT
B14: GGCGUCU (DNA:RNA)
RNA: B1 RNA with U25G, A26G, G27C, U28G, C29U, G30C
DNA 1: CAATCTGAATTCCGGTCTCCC
DNA 2: TGGTGGCTACGACGGGATT
B15: CGCAAUA (DNA:RNA)
RNA: GGGAGACCGGAAUUCAGAUUGUCCCGCAAUAUUAAAUCCCGUCGUAGCCACCA
DNA 1: CAATCTGAATTCCGGTCTCCC
DNA 2: TGGTGGCTACGACGGGATT
B16: GCUGCCA (DNA:RNA)
RNA: B15 RNA with C25G, G26C, C27U, A28G, A29C, U30C
DNA 1: CAATCTGAATTCCGGTCTCCC
DNA 2: TGGTGGCTACGACGGGATT
B17: AGGCCAG (DNA:RNA)
RNA: B1 RNA with U25A, A26G, U28C, G30A, U31G
DNA 1: CAATCTGAATTCCGGTCTCCC
DNA 2: TGGTGGCTACGACGGGATT
B18: CUGCAAU (DNA:RNA)
RNA: B15 RNA with G26U, C27G, A28C, U30A, A31U
DNA 1: CAATCTGAATTCCGGTCTCCC
DNA 2: TGGTGGCTACGACGGGATT
B19: CGUUCGU (DNA:RNA)
RNA: B1 RNA with U25C, A26G, G27U
DNA 1: CAATCTGAATTCCGGTCTCCC
DNA 2: TGGTGGCTACGACGGGATT
B20: GUCCCGC (DNA:RNA)
RNA: B1 RNA with U25G, A26U, G27C, U28C, U31C
DNA 1: CAATCTGAATTCCGGTCTCCC
DNA 2: TGGTGGCTACGACGGGATT
B21: UUUUGUU (DNA:RNA)
RNA: B1 RNA with A26U, G27U, C29G, G30U
DNA 1: CAATCTGAATTCCGGTCTCCC
DNA 2: TGGTGGCTACGACGGGATT
B22: CGCUGCC (DNA:RNA)
RNA: B15 RNA with A28U, A29G, U30C, A31C
DNA 1: CAATCTGAATTCCGGTCTCCC
DNA 2: TGGTGGCTACGACGGGATT
B23: AGGUGAU (DNA:RNA)
RNA: B1 RNA with U25A, A26G, C29G, G30A
DNA 1: CAATCTGAATTCCGGTCTCCC
DNA 2: TGGTGGCTACGACGGGATT
B24: AUAUCUG (DNA:RNA)
RNA: B1 RNA with U25A, A26U, G27A, G30U, U31G
DNA 1: CAATCTGAATTCCGGTCTCCC
DNA 2: TGGTGGCTACGACGGGATT
B25: AGUCUAA (DNA:RNA)
RNA: B15 RNA with C25A, C27U, A28C, A29U, U30A
DNA 1: CAATCTGAATTCCGGTCTCCC
DNA 2: TGGTGGCTACGACGGGATT
B26: GUGUUGU (DNA:RNA)
RNA: B1 RNA with U25G, A26U, C29U
DNA 1: CAATCTGAATTCCGGTCTCCC
DNA 2: TGGTGGCTACGACGGGATT
B27: UAUAGAC (DNA:RNA)
RNA: B1 RNA with G27U, U28A, C29G, G30A, U31C
DNA 1: CAATCTGAATTCCGGTCTCCC
DNA 2: TGGTGGCTACGACGGGATT
B28: AUAGCUG (DNA:RNA)
RNA: B15 RNA with C25A, G26U, C27A, A28G, A29C, A31G
DNA 1: CAATCTGAATTCCGGTCTCCC
DNA 2: TGGTGGCTACGACGGGATT
B29: UGGCUGU (DNA:RNA)
RNA: B1 RNA with A26G, U28C, C29U
DNA 1: CAATCTGAATTCCGGTCTCCC
DNA 2: TGGTGGCTACGACGGGATT
B30: GUUGCCA (DNA:RNA)
RNA: B15 RNA with C25G, G26U, C27U, A28G, A29C, U30C
DNA 1: CAATCTGAATTCCGGTCTCCC
DNA 2: TGGTGGCTACGACGGGATT
B31: AGCUAGG (DNA:RNA)
RNA: B15 RNA with C25A, A28U, U30G, A31G
DNA 1: CAATCTGAATTCCGGTCTCCC
DNA 2: TGGTGGCTACGACGGGATT

For the experiment, the target named is T1, RBFOX1 RRM. Put plainly: EMSA; HiTS-Eq, 1 nM pool, 10 min; buffer printed only for the single-RNA assays: 10 mM Tris pH 7.5, 150 mM NaCl, 3.4 mM EDTA, 0.001% NP-40, 30 C. The settings on record: tags: His6 N-terminal (pET28a); label: 5' 32P. A digest of the protocol:
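These values rest on relative association constants, computed from read-count changes of each RNA species versus the control reaction and normalised to the cognate motif. Reads came from free RNA recovered by 8% native PAGE after purified RbFox RRM (wild type or mutant) at increasing concentrations was equilibrated for 10 min in 50 µL with 1 nM of a 5′-radiolabelled pool with 7 randomized nucleotides and DNA-annealed flanks.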
As for B1, the binding signal was 0.017 KA relative to UGCAUGU.

Turning to B2, the binding signal is 0.0153 KA relative to UGCAUGU.

As to B3, the binding signal is 0.0227 KA relative to UGCAUGU. The same measure for B4: 0.0107 KA relative to UGCAUGU; for B5: 0.00969 KA relative to UGCAUGU; for B6: 0.0115 KA relative to UGCAUGU. The same measure for B7: 0.00774 KA relative to UGCAUGU; for B8: 0.0204 KA relative to UGCAUGU; for B9: 0.0111 KA relative to UGCAUGU. As for B10, the figure is 0.00602 KA relative to UGCAUGU; as for B11, 0.007 KA relative to UGCAUGU; as for B12, 0.0233 KA relative to UGCAUGU. B13: the binding signal is 0.0114 KA relative to UGCAUGU. The same measure for B14: 0.0147 KA relative to UGCAUGU; for B15: 0.00289 KA relative to UGCAUGU; for B16: 0.0131 KA relative to UGCAUGU.

As for B17, the binding signal is 0.0129 KA relative to UGCAUGU.

For the molecule B18, the binding signal is 0.013 KA relative to UGCAUGU. The same measure for B19: 0.0195 KA relative to UGCAUGU; for B20: 0.0018 KA relative to UGCAUGU; for B21: 0.0256 KA relative to UGCAUGU. The same measure for B22: 0.016 KA relative to UGCAUGU. As for B23, the figure is 0.0113 KA relative to UGCAUGU. B24: the binding signal is 0.00553 KA relative to UGCAUGU. The same measure for B25: 0.00296 KA relative to UGCAUGU. For the molecule B26, the binding signal is 0.0196 KA relative to UGCAUGU. The same measure for B27: 0.0084 KA relative to UGCAUGU; for B28: 0.00933 KA relative to UGCAUGU; for B29: 0.0395 KA relative to UGCAUGU. As to B30, the binding signal is 0.0162 KA relative to UGCAUGU. In the case of B31, the binding signal is 0.018 KA relative to UGCAUGU.
